# The other results are listed elsewhere or left out. These are noisy estimates, calculated here from bound and input reads.
# Target: T1, Pho4 (S. cerevisiae) (UniProt P07270)
# T1 sequence: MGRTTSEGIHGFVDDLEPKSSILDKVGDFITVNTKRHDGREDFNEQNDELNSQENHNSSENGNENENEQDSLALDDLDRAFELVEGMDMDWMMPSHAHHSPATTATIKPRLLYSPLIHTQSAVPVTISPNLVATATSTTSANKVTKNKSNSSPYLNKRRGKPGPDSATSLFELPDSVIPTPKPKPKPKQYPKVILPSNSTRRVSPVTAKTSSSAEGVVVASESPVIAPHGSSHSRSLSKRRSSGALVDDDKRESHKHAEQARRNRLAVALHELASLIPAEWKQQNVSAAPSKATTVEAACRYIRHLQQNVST
# Assay: relative binding free energy (BET-seq); higher = weaker binding
# Settings: reference: library average
row,Sequence,relative binding free energy [kcal/mol]
1,ACTTTCACGTGTGGGC,0.16
2,ACTTACACGTGATTGT,0.24
3,GTTTGCACGTGCGAGT,0.18
4,TTGCGCACGTGTAGGG,0.01
5,CATTACACGTGTTAGG,0.15
6,TGGAGCACGTGTATAG,-0.06
7,GGATACACGTGATATG,0.11
8,AGTTACACGTGTAGCT,0.13
9,TGTGTCACGTGTTAGT,0.08
10,GTCAACACGTGTTTTG,0.02
11,GTGGCCACGTGGCTGG,-0.14
12,TGTGGCACGTGGTGTC,-0.29
13,ATCTACACGTGGGGGG,-0.03
14,GTTTACACGTGTATCT,0.12
15,GAATTCACGTGATGTG,0.35
16,ATGTTCACGTGGGTTG,0.18
17,TTAAACACGTGGTTGG,-0.08
18,TAGGACACGTGGTTCG,0.02
19,CGGTTCACGTGGCGAG,0.35
20,TGGGGCACGTGAGCGC,0.18
21,TTAGTCACGTGGGGTT,0.02
22,AGTTACACGTGTGAGG,0.12
23,AGGGGCACGTGTGTAA,-0.17

row,Sequence,relative binding free energy [kcal/mol]
1,GGTTGCACGTGCATTG,-0.04
2,CTGGGCACGTGAAGGT,0.14
3,AGTGTCACGTGATAGC,0.16
4,TTCAGCACGTGTGGGG,0.03
5,TTCGACACGTGTGGCT,0.1
6,TAAAGCACGTGGGTAC,-0.04
7,TTGTGCACGTGTTGTT,0.02
8,AACTTCACGTGGGATT,0.3
9,GATGTCACGTGTTGGG,0.16
10,TTGTACACGTGGGTCG,-0.15
11,GTGTACACGTGATTGA,0.22
12,GGGGACACGTGAGTCG,0.19
13,TCGAGCACGTGGGGTG,-0.22
14,GAGAGCACGTGTGATG,-0.01
15,TTCGACACGTGATTTG,0.23
16,GCGTACACGTGGGGGC,0.03
17,TGATACACGTGAGCGG,0.18
18,CTGAACACGTGGTTTT,0.12
19,TTTCTCACGTGGTCGT,0.18
20,AGTGGCACGTGGGGGC,-0.12
21,CATAGCACGTGTGGTT,-0.03
22,TTTCTCACGTGTTAAG,0.21
23,GGGTGCACGTGATTAG,-0.01

row,Sequence,relative binding free energy [kcal/mol]
1,TCTGTCACGTGGTCGT,0.05
2,ATAGTCACGTGGTCAT,0.04
3,TAAGTCACGTGTTGAA,0.04
4,CTGTGCACGTGAGGTG,0.28
5,ATGAGCACGTGTCGGC,0.03
6,CGGGTCACGTGGTGGT,0.03
7,TGGGACACGTGGGACA,-0.05
8,GCAGGCACGTGTGATG,-0.05
9,TTATACACGTGTCTGG,0.11
10,TGAGTCACGTGAGGTC,0.35
11,AGGGGCACGTGGGAAC,-0.16
12,TTGTACACGTGTTGGA,0.15
13,AATGGCACGTGGTTCT,-0.26
14,GAGTTCACGTGCGGCG,0.26
15,TATGTCACGTGAAAGA,0.3
16,TTTAGCACGTGCGGCT,-0.12
17,CGGTGCACGTGATTGT,0.01
18,AGTGTCACGTGTTAAA,0.15
19,TACGGCACGTGTTCGG,-0.03
20,CCGTTCACGTGGGAGG,0.17
21,AGATTCACGTGGAAGG,0.3
22,AGTAACACGTGGCTTT,-0.03
23,TTCTTCACGTGTTTAT,0.37

row,Sequence,relative binding free energy [kcal/mol]
1,TTACTCACGTGTGGCG,0.21
2,TGTGGCACGTGCTTAT,-0.12
3,TGGTGCACGTGCGGTA,-0.1
4,GGCTGCACGTGGGTTT,-0.05
5,CTGTACACGTGGGAGG,-0.06
6,GTGGGCACGTGCGATG,-0.08
7,TATTACACGTGGGCGA,-0.03
8,TGTAGCACGTGTGAGT,0.03
9,ATGGGCACGTGGGACT,-0.16
10,AACGTCACGTGGAGGT,0.08
11,GGTATCACGTGCGTAG,-0.01
12,TTATACACGTGTTAAG,-0.14
13,GGAGGCACGTGCCGTT,-0.06
14,GTTTACACGTGAGACG,0.33
15,AAGGGCACGTGGGCGT,-0.32
16,GGGATCACGTGTATGC,0.24
17,TGGCGCACGTGTTGGA,0.15
18,GGTTTCACGTGTGGGC,0.38
19,TCGGGCACGTGGGTCA,-0.12
20,CGGGACACGTGGTGAG,-0.12
21,TCGGGCACGTGTTTGA,-0.13
22,TTTGGCACGTGCGACT,-0.05
23,GTGTGCACGTGGATGA,-0.02

row,Sequence,relative binding free energy [kcal/mol]
1,ATGATCACGTGGGATG,-0.02
2,TATTTCACGTGCTAGG,0.14
3,GTTTGCACGTGCTTCA,0.08
4,GAGATCACGTGTAGTT,0.31
5,GTTAACACGTGTACGT,0.07
6,AGTGACACGTGTTGCG,0
7,TGGATCACGTGTCTTT,0.24
8,GGGCGCACGTGATGGC,0.15
9,GGGGGCACGTGCCGAG,-0.2
10,ATTGACACGTGTGGGA,0.22
11,ACGTGCACGTGGATGA,-0.04
12,GTCTTCACGTGCAGGG,0.34
13,GGGTACACGTGGCGGC,0.07
14,TGGTACACGTGTCAAG,0.13
15,GAGCTCACGTGGGGGT,0.12
16,TTCTTCACGTGGATGA,0.18
17,GTATGCACGTGATTGT,0.13
18,GTGCACACGTGTTAGT,0.03
19,TGTTTCACGTGAGAGC,0.51
20,TTCGGCACGTGGTAAT,-0.01
21,GAGGTCACGTGGCTGC,0.19
22,TTAAGCACGTGTGGAG,0.01
23,GTTCGCACGTGGGATG,-0.06

# Source: the BET-seq Pho4 binding data (Le et al. 2018)
